# Reference: PubChem BioAssay AID624296 (National Center for Advancing Translational Sciences (NCATS), 2012)
# Several values for one entry are separate records, joined by “and”; a condition that tells them apart may be missing. Identical values can stand only once. Screen size: about 350,000 compounds; about 9,900 (2.8%) were called active. This list was built around the results that the source calls inconclusive (neither active nor inactive); the mix of calls is not that of the screen. Calls come from the whole dose curve; as a rule, active = well fitted activation curve with a large enough effect; inconclusive = small, poorly fitted or top-dose-only effect; inactive = no such curve, though single readings can be large or run the other way. Potencies beside an inconclusive call are fits to weak or partial responses and may not hold up.
# Test: A quantitative high throughput screen for small molecules that induce DNA re-replication in MCF 10a normal breast cells. For activity, positive = re-replication: % of control where 0% means no effect. Note: nearly all actives have a fitted effect of over 50% in size.
# Conditions: MCF 10A DNA re-replication, Hoechst nuclear intensity, 48 h; activity, positive = re-replication: at 46.1 µM (top of the series)
# Potency is the fitted concentration of half-maximal effect; tags give direction and shape of the fitted curve.
SMILES,Potency,"activity, positive = re-replication"
O=C(NCc1ccco1)c1c(F)c(F)c(F)c(C(=O)NCc2ccco2)c1F,"inconclusive: 18.4 µM [activator, single point]",
COc1ccc(Cn2nc(-c3ccccc3)c(N3CCCCC3)cc2=O)cc1,"inconclusive: 20.6 µM [activator, partial curve, poor fit]",
Clc1ccc(CN(Cc2ccc(Cl)cc2)c2nn[nH]n2)cc1,"inconclusive: 2.31 µM [activator, single point]",
Cc1ccc(OCC(=O)c2cc(C)c(C)cc2C)c([N+](=O)[O-])n1,"inconclusive: 29.1 µM [activator, single point]",
Cc1ccc(C(=O)NCCNc2ncc(C(F)(F)F)cc2Cl)cc1[N+](=O)[O-],"inconclusive: 29.1 µM [activator, single point]",
O=C(NCCNc1ccc([N+](=O)[O-])cc1C(F)(F)F)c1ccccc1,,inactive: -64.5%
CCC(C)NS(=O)(=O)c1ccc(F)c(C(=O)Nc2c(F)cc(F)cc2Br)c1 (centres undefined),"inconclusive: 0.206 µM [activator, partial curve, poor fit]",
O=c1oc2cc(O)ccc2c2oc3cc(O)ccc3c12,"inconclusive: 16.4 µM [activator, partial curve]",
CCCCCCCN1C(Nc2ccccc2)=NC[C@@H]1C,"inconclusive: 0.731 µM [activator, full curve, poor fit]",
O=C(NCC1CCCN(C(=O)NCc2ccccc2)C1)c1ccc2c(c1)OCO2 (centres undefined),,inactive: -14.5%
Cc1ccc(OCC(O)CN2CCN(CCO)CC2)c(C)c1 (centres undefined),"inconclusive: 29.1 µM [activator, single point]",
O=C(COC(=O)CNC(=O)c1ccccc1)Nc1nc(-c2ccccc2)cs1,"inconclusive: 6.51 µM [activator, single point]",
CCOc1ccc(S(=O)(=O)N2CCCC(C(=O)NCc3ccncc3)C2)cc1C (centres undefined),"inconclusive: 20.6 µM [activator, single point]",
C=CCN1C(c2cccc(C(F)(F)F)c2)=CS/C1=C(/C#N)c1nnc(N2CCOCC2)n1-c1ccccc1,"inconclusive: 29.1 µM [activator, single point]",
CC(C)[C@H](NC(=O)N1CC(=O)Nc2ccccc21)C(=O)N1CCC(C(=O)O)CC1,,inactive: 1.9%
Cc1noc(/C=C/c2cccs2)c1S(=O)(=O)N1CCC(C(=O)NCCCN2CCCC(C)C2)CC1 (centres undefined),,inactive: 15.2%
O=C(Cn1nc2n(c1=O)-c1ccccc1SC2)N/N=C/c1ccncc1,"inconclusive: 20.6 µM [activator, single point]",
COc1ccc(-c2c(-c3cc(OC)cc(OC)c3)n(C)c3ccc(-c4ccc(OC)nc4)cc23)cc1,"inconclusive: 29.1 µM [activator, single point]",
CN(CC(=O)Nc1ccccc1Br)C(=O)c1cccc(S(=O)(=O)N2CCc3ccccc32)c1,"inconclusive: 8.2 µM [activator, partial curve]",
COc1ccccc1CNS(=O)(=O)c1cccs1,,inactive: -2.88%
CCOc1cc(N2CCOCC2)c(OCC)cc1NC(=O)CN1CCC(Cc2ccccc2)CC1,"inconclusive: 2.59 µM [activator, partial curve]",
CC(C)(c1ccccc1)c1ccc(OCC2CO2)cc1 (centres undefined),"inconclusive: 18.4 µM [activator, partial curve, poor fit]",

SMILES,Potency,"activity, positive = re-replication"
COc1ccc(-c2nc3c(s2)CCc2onc(-c4ccc(OC)cc4)c2-3)cc1,active: 4.11 µM,
CC1CCC(C(C)C)C(OC(=O)Cn2c(-c3ccc(Br)cc3)[n+](C)c3ccccc32)C1 (centres undefined),"inconclusive: 23.1 µM [activator, partial curve, poor fit] and inconclusive: 10.3 µM [activator, partial curve, poor fit]",
Cc1oc(CC(C)C)cc1C(=O)Nc1cccc2ccccc12,"inconclusive: 25.9 µM [activator, single point]",
COc1ccc(C)cc1NC(=O)CSc1nnc(COc2ccccc2)n1Cc1ccco1,"inconclusive: 23.1 µM [activator, single point]",
Cc1ccc(O)c(CNc2cccc(C)n2)c1,,inactive: 6.03%
OCC1OC(n2cnc3c(/C=C(\O)c4ccccc4)ncnc32)C(O)C1O (centres undefined),active: 5.8 µM,
O=C(CSc1nc2ccccc2c(=O)n1Cc1ccco1)c1ccc(F)cc1,"inconclusive: 18.4 µM [activator, single point]",
COCc1c(C(=O)OCC(=O)c2c(N)n(CC(C)C)c(=O)n(C)c2=O)oc2ccccc12,"inconclusive: 32.6 µM [activator, partial curve, poor fit]",
O=C1Nc2cc3c(cc2C1=O)sc1ccccc13,"inconclusive: 14.6 µM [activator, partial curve]",
CCn1nc(NS(=O)(=O)c2ccc([N+](=O)[O-])cc2)c2cc3ccc(C)cc3nc21,,inactive: -0.908%
Cc1ccc(Cl)cc1N1CCN(CC(=O)NC2CCCc3ccccc32)CC1 (centres undefined),"inconclusive: 16.4 µM [activator, single point]",
CCOC(=O)N1CCC(NC(=O)C(NS(=O)(=O)c2ccc3c(c2)CCN3C(=O)CC)C(C)C)CC1 (centres undefined),"inconclusive: 25.9 µM [activator, single point]",
CCC(=O)N(c1nnc(SCC(=O)NN2C(=O)NC3(CCC(C)CC3)C2=O)s1)C1CC1 (centres undefined),"inconclusive: 0.0082 µM [activator, full curve, poor fit]",
Cc1coc(NC(=O)CSc2nc(-c3ccc(Cl)cc3)cc(C(F)(F)F)c2C#N)n1,,inactive: 16%
CCOc1ccc2nc(NC(=O)C3CCCN(S(=O)(=O)c4c(C)noc4C)C3)sc2c1 (centres undefined),"inconclusive: 13 µM [activator, partial curve, poor fit]",
CCN(CC(=O)Nc1c(F)cccc1F)C(=O)c1ccc(S(=O)(=O)N2CCC(C)CC2)cc1,,inactive: -1.24%
N#C/C(=C/c1ccc(Sc2nc3ccccc3[nH]2)o1)c1cccc(Br)c1,"inconclusive: 1.3 µM [activator, full curve]",
COC(=O)[C@@]1(Cc2ccc(OC)cc2)[C@H]2c3cc(C(=O)N4CCCC4)n(Cc4ccc(OC)c(OC)c4)c3C[C@H]2CN1C(=O)c1ccccc1,"inconclusive: 29.1 µM [activator, partial curve, poor fit]",
Fc1ccccc1N1CCN(Cc2cccnc2)CC1,"inconclusive: 2.59 µM [activator, full curve, poor fit]",
CC1(C)C(C=C(Cl)Cl)C1C(=O)N(Cc1cccc(Cl)c1)C1CCS(=O)(=O)C1 (centres undefined),,inactive: -1.96%
CCOC(=O)C(=N/O)/C(C)=N/NC(C)=O,"inconclusive: 2.31 µM [activator, partial curve, poor fit]",
Cc1cccc(-n2cc(CN(C)Cc3nccn3C)c(-c3cccc(F)c3)n2)c1,"inconclusive: 25.1 µM [activator, partial curve, poor fit]",

SMILES,Potency,"activity, positive = re-replication"
CNC(=S)N/N=C(\C)c1ccc2c(c1)OCCO2,,inactive: -2.79%
Cc1ccc(N(c2ncnc(N)c2[N+](=O)[O-])C2CCCCC2)cc1,"inconclusive: 18.4 µM [activator, partial curve, poor fit]",
CCN(CC)S(=O)(=O)c1ccc(S(=O)(=O)N(CC(=O)Nc2ccccc2)Cc2ccco2)cc1,"inconclusive: 23.1 µM [activator, single point]",
Cc1cc(C)nc(/N=C(\N)Nc2cccc(OCc3ccccc3)c2)n1,active: 13 µM,
O=C1c2cccc(OCC(=O)N3CCCc4ccccc43)c2CCN1Cc1ccc(Br)cc1,"inconclusive: 25.9 µM [activator, partial curve, poor fit]",
C=CS(=O)(=O)c1ccc(Oc2ccc(S(=O)(=O)C=C)cc2)cc1,active: 3.26 µM,
CC(=O)Nc1ccc(C(=O)OCC(=O)c2cccc([N+](=O)[O-])c2)cc1,,inactive: -4.66%
Cc1nc2ccccn2c1C(=O)N/N=C/c1ccc2c(c1)OCO2,"inconclusive: 29.1 µM [activator, partial curve, poor fit]",
CCOC(=O)/C=C/c1ccc2c(c1)S(=O)(=O)N(Cc1ccc(OC)cc1)[C@H]2CC(=O)OCC,"inconclusive: 25.9 µM [activator, single point]",
Cc1cc(C(=O)NC2=NCCS2)cs1,,inactive: -0.707%
O=C(NCc1cccs1)c1noc2c1CCCC2,"inconclusive: 23.1 µM [activator, single point]",
CCCn1c(C)cc(C(=O)CN2C(=O)c3cccc(N)c3C2=O)c1C,"inconclusive: 2.82 µM [activator, partial curve, poor fit]",
Cc1cc(C(=O)N2CCCC(C(=O)c3cc(F)ccc3F)C2)c(C)o1 (centres undefined),"inconclusive: 25.9 µM [activator, single point]",
COc1ccc(N2C(=O)c3ccc(NC(C)=O)cc3C2=O)cc1,"inconclusive: 20.6 µM [activator, partial curve, poor fit]",
CCCOc1ccc(/C=N/Nc2ccccc2[N+](=O)[O-])c(O)c1,,inactive: 15.7%
Cc1ccc(C(=O)CSc2nnc(COc3ccc(C#N)cc3)n2-c2ccccc2)cc1,,inactive: 8.68%
COc1ccc(C)cc1S(=O)(=O)N1CCc2ccccc2C1,"inconclusive: 29.1 µM [activator, single point]",
CCN1CCN(C(=S)Nc2ccc3nc(N4CCN(C)CC4)cc(C)c3c2)CC1,"inconclusive: 4.61 µM [activator, full curve]",
C=C(C)C1CC=C(C)/C(=N/NC(=O)c2cccc([N+](=O)[O-])c2)C1 (centres undefined),"inconclusive: 16.4 µM [activator, single point]",
COc1cc(CNc2nc3c(C)cc(C)cc3s2)ccc1O,"inconclusive: 11.6 µM [activator, partial curve, poor fit]",
